The values below come from PubChem BioAssay AID504648 (National Center for Advancing Translational Sciences (NCATS), 2011).

“And” between values parts separate entries of the source, which are not always exact repeats. Equal entries are not always repeated. Out of some 390,000 compounds screened, about 610 (0.16%) were called active. About 4% were inconclusive and are not listed. Calls follow the shape of the dose curve; as a rule, active = well fitted inhibition curve with a large enough effect; inconclusive = small, poorly fitted or top-dose-only effect, or effect the other way, or another doubt; inactive = no such curve, though single readings can be large or run the other way. This is a selection; strong and weak results do not stand in their true shares.
% is scaled to controls: 0 for no effect and ±100 for the full control effect; potency is read from the fitted curve at half-maximal effect.

This assay can be described thus: Nrf2 qHTS screen for inhibitors: counterscreen for cytotoxicity. The note with it: A549 ARE-Fluc cells, CellTiter-Fluor viability, 18-24 h; series mostly up to 46 µM; activity change, negative = cytotoxicity: at the top concentration. The gist of the method: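 Cytotoxicity counterscreen: CellTiter-Fluor fluorescence was measured in A549 ARE_Fluc cells after 18-24 h of compound exposure in a concentration series. The subsequent BugLite luminescent read reports ARE-luciferase activity.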
Background: In qHTS, concentration-response curves come from the screen itself.
`Cn1cc(C(=O)N/N=C/C(Br)=C/c2ccccc2)ccc1=O`: the “activity change, negative = cytotoxicity” value is inactive: 5.06%.
For `NC(=NCCCCCCN=C(N)/N=C(\N)Nc1ccc(Cl)cc1)/N=C(\N)Nc1ccc(Cl)cc1`, the “activity change, negative = cytotoxicity” value was inactive: -2.22%.
With `Nc1nc(=S)c2ncn(C3OC(CO)C(O)C3O)c2[nH]1` (centres undefined), the “activity change, negative = cytotoxicity” value was inactive: -1.98%.
Regarding `CN(C)c1ccc(/C=C/c2ccc3c4ccccc4ccc3[n+]2-c2ccccc2)cc1`, the Potency was active: 9.2 µM and active: 10.3 µM.
Same read-out and setting: the result for `Cc1c(N=C/C=C2/N(C)c3ccccc3C2(C)C)c(=O)n(-c2ccccc2)n1C` reads “inactive”; that for `Cc1ccc(/C=C2\SC(=S)N(CCC(=O)NCCCN3CCOCC3)C2=O)cc1`, active: 14.6 µM.
Take `CCOC(=O)c1c(C)[nH]c2c1-c1ccccc1C(=O)C2=O`: the Potency is active: 23.1 µM.
Regarding `O=C1/C(=C\c2cccs2)SC(=S)N1C1CCS(=O)(=O)C1` (centres undefined), the “activity change, negative = cytotoxicity” value is inactive: -12.6%.
Take `Cc1[nH]c2ccc(C(=O)NCCCN3CCCCC3)cc2c1C`: the “activity change, negative = cytotoxicity” value was inactive: 13.2%.
Same read-out and setting: as for `CCOC(=O)C1=CC[C@H]2c3c(c4ccccc4n3C)C(=O)C1N2C(=O)OC(C)(C)C`, the figure is inactive: -1.29%.
Take `CCN(CC)CCC(c1ccc2c(c1)OCO2)c1c(OC)cc(OC)c2ccc(=O)oc12` (centres undefined): the Potency is active: 16.4 µM.
As for `COc1ccc(Cn2c(C(=O)O)c(CNCc3cccc(OC)c3)c3ccc(C)cc32)cc1`, the Potency was active: 8.2 µM.
Consider `COc1cccc2c1C(=O)c1c(O)c3c(c(O)c1C2=O)C[C@@](O)(C(=O)CO)C[C@@H]3O[C@H]1C[C@H](N)[C@H](O)[C@H](C)O1`, for which the “activity change, negative = cytotoxicity” value is inactive: -21.6%.
The same measure, in the same setting: the result for `CCN(CC)CCN1C(=O)Cn2c(C)c(C)c3cccc1c32` reads inactive: -1.39%.
Take `Cc1ccc(N2CC(C(=O)Nc3nccs3)CC2=O)cc1Cl` (centres undefined): the Potency is active: 16.4 µM.
Take `O=C(O)[C@@H](O)c1ccccc1`: the “activity change, negative = cytotoxicity” value was inactive: -1.52%.
Consider `COc1ccc(NS(=O)(=O)c2cc([N+](=O)[O-])ccc2N/N=C\c2c(C)[nH]c3ccccc23)cc1`, for which the “activity change, negative = cytotoxicity” value is inactive: -15.9%.
Same read-out and setting: as for `O=C1N[C@@H](Cc2ccccc2)COC(=O)[C@H](Cc2ccc(F)cc2)CC/C=C/C[C@@H]1CC(=O)N(CCO)Cc1ccccc1`, the figure is inactive: -5.41%; as for `CCOC(=O)c1cnc2ccc(OC)cc2c1NCCc1ccc(OC)c(OC)c1`, inactive: -17.2%.
`CC1=NN(c2ccccc2)C(=O)/C1=C/C=C/C=C/N(C)C`: the Potency was active: 10.3 µM.
For the compound `C=CCC[C@H](Cc1ccc(F)cc1)C(=O)OC[C@@H](Cc1c[nH]c2ccccc12)NC(=O)[C@@H](CC=C)CC(=O)N[C@H](CO)Cc1ccccc1`, the “activity change, negative = cytotoxicity” value is inactive: -13.9%.
Consider `O=C1[C@H](Cc2ccccc2)NCC=CC[C@@H](c2ccc(Cl)cc2)N1Cc1ccc(Cl)cc1`, for which the “activity change, negative = cytotoxicity” value was inactive: -21.4%.
Turning to `Cc1cccc(N2CCN(C(=O)c3nn(C)c4c3CS(=O)(=O)c3ccccc3-4)CC2C)c1` (centres undefined), the “activity change, negative = cytotoxicity” value is inactive: -4.26%.
For the compound `Cc1ccc(-n2c(-c3ccco3)nc3c(cnn3-c3ccc(C)cc3)c2=O)cc1`, the “activity change, negative = cytotoxicity” value is inactive: 5.78%.
With `CCOc1ccc(-c2csc(/C(C#N)=C\c3ccc(O)c([N+](=O)[O-])c3)n2)cc1`, the Potency was active: 16.4 µM.
For `Cc1ccc(N(C)C(=O)CCS(=O)(=O)c2cc3c(cc2Cl)NC(=O)CO3)cc1`, the “activity change, negative = cytotoxicity” value is inactive: 1.4%.
Consider `Cc1ccc2nc(-c3ccc(N=Nc4cc(S(=O)(=O)O)c5ccccc5c4O)cc3)sc2c1S(=O)(=O)O`, for which the Potency was active: 13 µM.
Regarding `O=C(N/N=C/C(Br)=C\c1ccccc1)c1cccs1`, the “activity change, negative = cytotoxicity” value is inactive: -15.4%.
Same read-out and setting: as for `O=C1N[C@H](Cc2c[nH]c3ccccc23)COC(=O)[C@H](Cc2ccc(F)cc2)C/C=C\C[C@H]1CC(=O)N(CCO)Cc1ccccc1`, the figure is inactive: -11.2%; as for `CC1=C/C(=C(\c2ccc(O)c(C)c2)c2ccccc2S(=O)(=O)O)C=CC1=O`, inactive: -6.9%; as for `COc1ccc(S(=O)(=O)/N=C2/NC(=O)/C(=C/c3ccco3)S2)cc1`, inactive: -9.01%.
Turning to `COc1ccc(C(CC(=O)N2CCCC2)c2c(OC)cc(OC)c3ccc(=O)oc23)cc1` (centres undefined), the “activity change, negative = cytotoxicity” value was inactive: -12%.
Regarding `CCCOc1ccc(C(=O)N(Cc2cccs2)C2CCS(=O)(=O)C2)cc1` (centres undefined), the “activity change, negative = cytotoxicity” value is inactive: 7.26%.
The same measure, in the same setting: the result for `O=C(CCN1C(=O)/C(=C/c2ccco2)SC1=S)Nc1ccc(C(=O)O)c(O)c1` reads inactive: -13.3%.
As for `CC1(C)CC[C@]2(C(=O)n3ccnc3)CC[C@]3(C)[C@H](C(=O)C=C4[C@@]5(C)C=C(C#N)C(=O)C(C)(C)[C@@H]5CC[C@]43C)[C@@H]2C1`, the Potency is active: 6.51 µM.
Regarding `CCOc1ccc(NC(=O)CCCOc2cc(=O)n(C)c3ccccc23)cc1`, the “activity change, negative = cytotoxicity” value is inactive: 0.575%.
The same measure, in the same setting: the result for `CCC1CC=CC2C1C(=O)N(Cc1ccccc1)C2c1ccc(C(F)(F)F)cc1` (centres undefined) reads inactive: 0.552%; that for `Cc1cccc(N2CCN(C(=O)C3CCN(c4ncnc5c4nc4n5CCCCC4)CC3)CC2C)c1` (centres undefined), inactive: -14.2%.
`CC1=CC(C)(C)N2C(=O)C3(NCCc4c3[nH]c3ccccc43)c3cc(C)cc1c32` (centres undefined): the Potency is active: 11.6 µM.
`COc1cc(OC)c2ccc(=O)oc2c1C(CCN1CCCC(C)C1)c1ccc(N(C)C)cc1` (centres undefined): the “activity change, negative = cytotoxicity” value was inactive: -21.4%.
With `COc1cc(OC)c2ccc(=O)oc2c1C(CCN1CCCC1)c1ccc(N(C)C)cc1` (centres undefined), the “activity change, negative = cytotoxicity” value is inactive: -15.1%.
Still for that read-out and setting: the result for `CCn1cc(C(=O)NCCCN2CCC(C)CC2)c(=O)c2cc(S(=O)(=O)N(C)C3CCCCC3)ccc21` reads inactive: -11.8%; that for `Cn1cccc1/C=C1\SC(=S)N(CC(=O)O)C1=O`, inactive: -23.2%.
For the compound `CCC(/C=C1\Sc2ccc(OC)cc2N1CCO)=C\c1sc2ccc(OC)cc2[n+]1CCO`, the Potency is active: 20.6 µM.
Still for that read-out and setting: the result for `Cc1ccc(NC(=S)N/N=C/c2ccc([N+](=O)[O-])s2)cc1` reads active: 23.1 µM.
Turning to `Cc1ccc2c(c1)c1c3n2CCNC3CCC1` (centres undefined), the “activity change, negative = cytotoxicity” value is inactive: 3.68%.
On to `Cc1cccc(NC(=O)C(=O)NNC(=O)c2ccc(C(C)(C)C)cc2)c1`, for which the Potency is active: 6.51 µM.
Consider `Cc1nc2ccccc2n2c(-c3ccccc3)c3c(=O)n(C)c(=O)n(C)c3c12`, for which the “activity change, negative = cytotoxicity” value is inactive: 5.03%.
`CC[n+]1c(/C=C(\C)SC)sc2ccccc21`: the “activity change, negative = cytotoxicity” value is inactive: -18.1%.
For the compound `C[C@@]12CCC=C[C@H]1[C@H](c1ccc3ccccc3c1)N(Cc1ccccc1)C2=O`, the “activity change, negative = cytotoxicity” value is inactive: -0.65%.
The same measure, in the same setting: the result for `C=CC[C@@H](Cc1ccc(F)cc1)C(=O)OC[C@@H]1CCCN1C(=O)[C@@H](CC=C)CC(=O)N[C@@H](CO)Cc1ccccc1` reads inactive: 8.2%; that for `CN(C)c1ccc(N=C/C=C2/N(C)c3ccccc3C2(C)C)cc1`, inactive: -29.8%; that for `O=C1N[C@@H](Cc2c[nH]c3ccccc23)COC(=O)[C@H](Cc2ccc(F)cc2)C/C=C\C[C@@H]1CC(=O)N(CCO)Cc1ccccc1`, inactive: -21.9%.
Turning to `CC(C)(C)[C@H]1COC(=O)[C@H](NC(=O)OCC2c3ccccc3-c3ccccc32)C/C=C\C[C@@H](CC(=O)N[C@H](CO)Cc2ccccc2)C(=O)N1`, the “activity change, negative = cytotoxicity” value was inactive: -12.6%.
